Measured values reported in the supplement of paper PMC8728848.
Some of the results follow.

Tests used:
Experiment in all cases: glycan array binding signal (z-score within array); higher = stronger binding
Settings in all cases: glycan notation: IUPAC condensed, linker removed
[1] = molecular target: Fuc(a1-2)[Gal(a1-3)]Gal(b1-4)[Fuc(a1-3)]GlcNAc
Summary of the method: (§1)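 Glycan array data were curated from 3228 arrays in the Consortium for Functional Glycomics database and kept only where the protein sequence was available. Glycan names were converted to IUPAC-condensed notation, and columns mapping to the same glycan were averaged. The binding signal is a within-array Z-score, averaged across arrays of the same protein sequence at different concentrations or buffers and across linkers. Negative Z-scores can be read as non-binding.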

[2] = molecular target: Fuc(a1-2)[Gal(a1-4)]Gal(b1-4)GlcNAc
Summary of the method: as §1

[3] = molecular target: Fuc(a1-2)[GalNAc(a1-3)]Gal
Summary of the method: as §1

[4] = molecular target: Fuc(a1-2)[GalNAc(a1-3)]Gal(b1-3)GalNAc(a1-3)[Fuc(a1-2)]Gal(b1-4)GlcNAc
Summary of the method: as §1

[5] = molecular target: Fuc(a1-2)[GalNAc(a1-3)]Gal(b1-3)GlcNAc
Summary of the method: as §1

[6] = molecular target: Fuc(a1-2)[GalNAc(a1-3)]Gal(b1-3)GlcNAc(b1-2)Man(a1-3)[Fuc(a1-2)[GalNAc(a1-3)]Gal(b1-3)GlcNAc(b1-2)Man(a1-6)]Man(b1-4)GlcNAc(b1-4)GlcNAc
Summary of the method: as §1

[7] = molecular target: Fuc(a1-2)[GalNAc(a1-3)]Gal(b1-4)Glc
Summary of the method: as §1

[8] = molecular target: Fuc(a1-2)[GalNAc(a1-3)]Gal(b1-4)GlcNAc
Summary of the method: as §1

[9] = molecular target: Fuc(a1-2)[GalNAc(a1-3)]Gal(b1-4)GlcNAc(b1-2)Man(a1-3)[Fuc(a1-2)[GalNAc(a1-3)]Gal(b1-4)GlcNAc(b1-2)Man(a1-6)]Man(b1-4)GlcNAc(b1-4)GlcNAc
Summary of the method: as §1

[10] = molecular target: Fuc(a1-2)[GalNAc(a1-3)]Gal(b1-4)GlcNAc(b1-3)Gal(b1-4)GlcNAc
Summary of the method: as §1

[11] = molecular target: Fuc(a1-2)[GalNAc(a1-3)]Gal(b1-4)GlcNAc(b1-3)Gal(b1-4)GlcNAc(b1-3)Gal(b1-4)GlcNAc
Summary of the method: as §1

[12] = molecular target: Fuc(a1-2)[GalNAc(a1-3)]Gal(b1-4)[Fuc(a1-3)]GlcNAc
Summary of the method: as §1

[13] = molecular target: Fuc(a1-2)[GalNAc(a1-4)]Gal(b1-4)GlcNAc
Summary of the method: as §1

[14] = molecular target: Fuc(a1-2)[GalNAc(b1-3)]Gal
Summary of the method: as §1

Fuc(a1-3)GlcNAc = molecular target: Fuc(a1-3)GlcNAc
Summary of the method: as §1

[15] = molecular target: Fuc(a1-3)[Gal(b1-4)]Glc6S
Summary of the method: as §1

[16] = molecular target: Fuc(a1-3)[Gal(b1-4)]GlcNAc
Summary of the method: as §1

[17] = molecular target: Fuc(a1-3)[Gal(b1-4)]GlcNAc(b1-2)Man(a1-3)[Fuc(a1-3)[Gal(b1-4)]GlcNAc(b1-2)Man(a1-6)]Man(b1-4)GlcNAc(b1-4)GlcNAc
Summary of the method: as §1

[18] = molecular target: Fuc(a1-3)[Gal(b1-4)]GlcNAc(b1-3)Gal(b1-3)[Fuc(a1-4)]GlcNAc
Summary of the method: as §1

[19] = molecular target: Fuc(a1-3)[Gal(b1-4)]GlcNAc(b1-3)GalNAc
Summary of the method: as §1

[20] = molecular target: Fuc(a1-3)[Gal(b1-4)]GlcNAc(b1-4)Gal(b1-4)[Fuc(a1-3)]GlcNAc
Summary of the method: as §1

[21] = molecular target: Fuc(a1-3)[Gal(b1-4)]GlcNAc(b1-4)Gal(b1-4)[Fuc(a1-3)]GlcNAc(b1-4)Gal(b1-4)[Fuc(a1-3)]GlcNAc
Summary of the method: as §1

[22] = molecular target: Fuc(a1-3)[Gal(b1-4)]GlcNAc(b1-6)[Gal(b1-3)GlcNAc(b1-3)]Gal(b1-4)Glc
Summary of the method: as §1

[23] = molecular target: Fuc(a1-3)[Gal(b1-4)]GlcNAc6S
Summary of the method: as §1

[24] = molecular target: Fuc(a1-3)[Gal3S(b1-4)]GlcNAc
Summary of the method: as §1

[25] = molecular target: Fuc(a1-3)[Gal3S(b1-4)]GlcNAc6S
Summary of the method: as §1

[26] = molecular target: Fuc(a1-3)[GalNAc(b1-4)]GlcNAc
Summary of the method: as §1

Fuc(a1-4)GlcNAc = molecular target: Fuc(a1-4)GlcNAc
Summary of the method: as §1

Fuc(b1-3)GlcNAc = molecular target: Fuc(b1-3)GlcNAc
Summary of the method: as §1

Gal(a1-2)Gal = molecular target: Gal(a1-2)Gal
Summary of the method: as §1

Gal(a1-3)Gal = molecular target: Gal(a1-3)Gal
Summary of the method: as §1

Gal(a1-3)Gal(b1-3)GlcNAc = molecular target: Gal(a1-3)Gal(b1-3)GlcNAc
Summary of the method: as §1

[27] = molecular target: Gal(a1-3)Gal(b1-3)GlcNAc(b1-2)Man(a1-3)[Gal(a1-3)Gal(b1-3)GlcNAc(b1-2)Man(a1-6)]Man(b1-4)GlcNAc(b1-4)GlcNAc
Summary of the method: as §1

[28] = molecular target: Gal(a1-3)Gal(b1-3)[Fuc(a1-4)]GlcNAc(b1-2)Man(a1-3)[Gal(a1-3)Gal(b1-3)[Fuc(a1-4)]GlcNAc(b1-2)Man(a1-6)]Man(b1-4)GlcNAc(b1-4)GlcNAc
Summary of the method: as §1

Gal(a1-3)Gal(b1-4)Glc = molecular target: Gal(a1-3)Gal(b1-4)Glc
Summary of the method: as §1

Gal(a1-3)Gal(b1-4)GlcNAc = molecular target: Gal(a1-3)Gal(b1-4)GlcNAc
Summary of the method: as §1

[29] = molecular target: Gal(a1-3)Gal(b1-4)GlcNAc(b1-3)GalNAc
Summary of the method: as §1

[30] = molecular target: Gal(a1-3)Gal(b1-4)[Fuc(a1-3)]GlcNAc
Summary of the method: as §1

B1: CLEC-1 (Homo sapiens), Q9NZH3 (protein)
chain: MQAKYSSTRDMLDDDGDTTMSLHSQASATTRHPEPRRTEHRAPSSTWRPVALTLLTLCLVLLIGLAAWGLLFFQYYQLSNTGQDTISQMEERLGNTSQELQSLQVQNIKLAGSLQHVAEKLCRELYNKAGAHRCSPCTEQWKWHGDNCYQFYKDSKSWEDCKYFCLSENSTMLKINKQEDLEFAASQSYSEFFYSYWTGLLRPDSGKAWLWMDGTPFTSELFHIIIDVTSPRSRDCVAILNGMIFSKDCKELKRCVCERRAGMVKPESLHVPPETLGEGD
glycan array binding signal (z-score) [1]: 0.163
glycan array binding signal (z-score) [2]: -0.046
glycan array binding signal (z-score) [3]: 0.014
glycan array binding signal (z-score) [4]: -0.454
glycan array binding signal (z-score) [5]: 1
glycan array binding signal (z-score) [6]: -0.299
glycan array binding signal (z-score) [7]: -0.202
glycan array binding signal (z-score) [8]: -0.052
glycan array binding signal (z-score) [9]: -0.152
glycan array binding signal (z-score) [10]: -0.168
glycan array binding signal (z-score) [11]: -0.297
glycan array binding signal (z-score) [12]: -0.163
glycan array binding signal (z-score) [13]: -0.263
glycan array binding signal (z-score) [14]: -0.129
glycan array binding signal (z-score) (Fuc(a1-3)GlcNAc): -0.256
glycan array binding signal (z-score) [15]: -0.515
glycan array binding signal (z-score) [16]: -0.06
glycan array binding signal (z-score) [17]: 0.129
glycan array binding signal (z-score) [18]: -0.424
glycan array binding signal (z-score) [19]: -0.019
glycan array binding signal (z-score) [20]: 0.18
glycan array binding signal (z-score) [21]: 0.063
glycan array binding signal (z-score) [22]: 0.054
glycan array binding signal (z-score) [23]: 0.057
glycan array binding signal (z-score) [24]: -0.18
glycan array binding signal (z-score) [25]: -0.521
glycan array binding signal (z-score) [26]: -0.232
glycan array binding signal (z-score) (Fuc(a1-4)GlcNAc): -0.383
glycan array binding signal (z-score) (Fuc(b1-3)GlcNAc): -0.203
glycan array binding signal (z-score) (Gal(a1-2)Gal): -0.406
glycan array binding signal (z-score) (Gal(a1-3)Gal): -0.376
glycan array binding signal (z-score) (Gal(a1-3)Gal(b1-3)GlcNAc): -0.401
glycan array binding signal (z-score) [27]: 3.16
glycan array binding signal (z-score) [28]: 0.413
glycan array binding signal (z-score) (Gal(a1-3)Gal(b1-4)Glc): -0.224
glycan array binding signal (z-score) (Gal(a1-3)Gal(b1-4)GlcNAc): 0.093
glycan array binding signal (z-score) [29]: -0.291
glycan array binding signal (z-score) [30]: 0.587
